Reference: the supplement of paper PMC8728848
The other results are listed elsewhere or left out.

Assays:
Test in all cases: glycan array binding signal (z-score within array); higher = stronger binding
Conditions in all cases: glycan notation: IUPAC condensed, linker removed
[1] = biological target: Neu5Gc(a2-8)Neu5Gc(a2-3)Gal(b1-4)GlcNAc(b1-3)Gal(b1-4)GlcNAc
In short: (§1)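 Columns mapping to the same glycan were averaged after glycan names were converted to IUPAC-condensed notation. The data come from 3228 arrays in the Consortium for Functional Glycomics database, limited to those with an available protein sequence. Binding is reported as a within-array Z-score averaged across arrays of one protein sequence and across linkers.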

[2] = biological target: Neu5Gc(a2-8)Neu5Gc(a2-6)Gal(b1-4)GlcNAc
In short: as §1

[3] = biological target: Neu5Gc(b2-6)Gal(b1-4)GlcNAc
In short: as §1

B1: CvGal2 (Crassostrea virginica) (protein)
chain: MGSSHHHHHHSSGLVPRGSHMRIREAGKRKDTTKVYQIPDGLFPGQQVMLRGRVPWGSKSFSINFSATPRMGEGDILFHLNPRPSEGVCIRNALLNGSWGAEEKWQPYFPFDDGRSFSVKIEVTNDAFRTFVNGRPFVDFLHRTDFRAGKYLTLREGAEYYDVIFQSKPNIPLTTAIHNGMRIGKTIRIRGMCTAQDGFAINFNDNRNNIYFHFNARPAQRTVVRNSYFGSWGNEETAISKEFPFYPFLYFYASFVCMEDKFAVYVNDEHFIDFAHRGNPNNISVLQIKGSVNVLDTECLEPMGEDAMTEVDSGLENGDLFVLNGLMTERGKTFAVNFLNGFTENDDIALHFNPRKSTGEVVLNSRYGGAWQSEEKVALPGVFWSNRPLQVKVETKRNKFKIYVNGVDLAKYKIRGNVEDVHAVQVKGDVFLLETLLLKRLMKPVWERLTGGIRPGTWVTLQGTPKKNWQQFVVNFALDDTLDGDIAFHFNVRRGARQVVRNHRQSGAWGREETVTPFFAFDSEATFEIVFFVKEEKFLIYFNGKLFFEFVHRVPVERITHIYMDGDCNFYEPEVVI
[1]
  glycan array binding signal (z-score): -0.341
[2]
  glycan array binding signal (z-score): -0.329
[3]
  glycan array binding signal (z-score): -0.336
